Reference: publication PMC4336329 (PLoS ONE, 2015)
About 2,200 (0.71%) of roughly 310,000 compounds showed an effect of 50% or more. Effects have a minus sign here. The list shows a part of the results.

molecular target: human ether-à-go-go-related gene (hERG) potassium channel (human, UniProt Q12809); assay: primary screen, population patch clamp on CHO cells stably expressing hERG
Sequence (Q12809 whole entry, looked up): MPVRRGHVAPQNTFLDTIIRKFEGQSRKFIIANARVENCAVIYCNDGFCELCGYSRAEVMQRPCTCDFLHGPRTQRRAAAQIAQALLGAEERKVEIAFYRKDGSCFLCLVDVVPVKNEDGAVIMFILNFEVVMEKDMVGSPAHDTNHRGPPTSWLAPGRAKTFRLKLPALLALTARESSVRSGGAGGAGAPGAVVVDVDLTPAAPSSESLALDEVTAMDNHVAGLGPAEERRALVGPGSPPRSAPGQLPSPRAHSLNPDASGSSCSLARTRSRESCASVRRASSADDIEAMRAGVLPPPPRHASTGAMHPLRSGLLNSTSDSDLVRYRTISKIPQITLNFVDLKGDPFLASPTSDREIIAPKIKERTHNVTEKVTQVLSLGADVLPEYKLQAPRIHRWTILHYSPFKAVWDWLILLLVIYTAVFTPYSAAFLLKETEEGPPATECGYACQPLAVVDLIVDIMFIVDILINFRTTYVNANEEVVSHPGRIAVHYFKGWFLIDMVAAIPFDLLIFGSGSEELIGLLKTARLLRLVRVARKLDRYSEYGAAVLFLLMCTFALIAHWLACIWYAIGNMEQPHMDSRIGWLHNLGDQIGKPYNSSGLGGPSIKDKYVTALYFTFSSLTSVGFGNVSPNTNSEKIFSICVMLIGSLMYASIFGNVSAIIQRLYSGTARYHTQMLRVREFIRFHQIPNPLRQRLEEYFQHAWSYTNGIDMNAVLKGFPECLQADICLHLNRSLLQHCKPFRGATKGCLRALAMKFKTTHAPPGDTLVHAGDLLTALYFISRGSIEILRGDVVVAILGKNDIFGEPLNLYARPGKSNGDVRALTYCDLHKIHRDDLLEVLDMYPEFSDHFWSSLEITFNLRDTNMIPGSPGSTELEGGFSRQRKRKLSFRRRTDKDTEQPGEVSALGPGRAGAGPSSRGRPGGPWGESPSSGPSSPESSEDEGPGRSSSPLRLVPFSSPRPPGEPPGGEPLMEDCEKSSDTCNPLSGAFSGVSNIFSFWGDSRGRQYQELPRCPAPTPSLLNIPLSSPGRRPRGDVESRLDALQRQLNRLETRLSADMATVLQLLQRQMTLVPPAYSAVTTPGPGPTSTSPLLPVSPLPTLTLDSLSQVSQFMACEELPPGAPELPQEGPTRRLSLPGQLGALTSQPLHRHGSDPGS

Row | SMILES | hERG current change (%, negative = inhibition) at 1uM [%]
1 | COc1ccc(C(=O)/C=C/C(=O)N(CC(=O)NC2CCCCC2)Cc2cccs2)c(O)c1 | 2.58
2 | COc1ccccc1OCC(=O)NNC(=O)c1ccoc1C | 29.1
3 | Fc1ccc(Br)cc1SCCc1ccncc1 | 4.36
4 | Cc1ccc(C)c(NC(=O)CSc2nnc(-c3ccccc3)o2)c1 | 5.58
5 | CCc1nc2ccc(C(=O)Nc3nnc(C)s3)cc2nc1CC | 15.8
6 | O=C(CCC(=O)N/N=C/c1ccccc1O)NCc1ccccc1 | 10.7
7 | O=S1(=O)[C@H]2C[C@@H]3CC[C@]2(CN1Cc1cccc(F)c1)O3 | 4.42
8 | O=S(=O)(c1ccccc1)N1CCC(n2nnc3cc(F)ccc32)CC1 | -10.7
9 | CCN1C(=O)CC2(C[N+]3(C)CCC2CC3)C1=O.[Br-] (centres unmarked) | 11.7
10 | Cc1noc(C)c1COC(=O)c1cccc(S(=O)(=O)N2CCOCC2)c1 | 14
11 | CCC1CCCCN1CCCNC(=O)CNC(=O)c1nn(-c2ccc(OC)cc2)c(=O)c2ccccc12 (centres unmarked) | 6.84
12 | COc1ccc(C(=O)OCC(=O)NC2CCCC2)cc1OC | 12.8
13 | Cc1ccc(-n2c(N)c(C(=O)N3CCCCC3)sc2=S)cc1 | 9.1
14 | CCOC(=O)C1CCN(C(=O)c2cccnc2Cl)CC1 | 10.6
15 | COc1ccc(S(=O)(=O)Cc2ccc(C(=O)N3CCN(c4cc(C)ccc4C)CC3)o2)cc1 | 6.46
16 | CCn1c(C)nc2cc(S(=O)(=O)N3CCCC3)ccc21 | 12.7
17 | CN(C(=O)C1CCOC1)c1nnc(-c2cccnc2)s1 (centres unmarked) | 10.2
18 | COCc1cc(Sc2ccc(Br)cc2)nc(-c2ccccc2)n1 | 13.2
19 | CC(C)Oc1ccc(CNC(=O)C2CCCN(S(=O)(=O)N3CCOCC3)C2)cc1 (centres unmarked) | 4.66
20 | Cc1cccc(OCC(=O)O/N=C(\N)c2ccc(Cl)cc2)c1 | 21.2
21 | CCCn1c(=S)[nH]c2cc(C(=O)N3CCc4ccccc43)ccc2c1=O | 15
22 | O=C(CN1C(=O)NC2(CCCCC2)C1=O)Nc1ccccc1N1CCCCC1 | 1.41
23 | COc1ccc(C(=O)N2N=C(c3cccs3)CC2c2ccccc2O)cc1 (centres unmarked) | 7.77

Row | SMILES | hERG current change (%, negative = inhibition) at 1uM [%]
24 | COc1ccc(C2C(C#N)=C(N)N(Nc3ccccc3)C3=C2C(=O)CC(C)(C)C3)cc1C (centres unmarked) | 11.4
25 | CCCC(=O)N1CCN(S(=O)(=O)c2cc(Cl)ccc2OC)CC1 | 14.1
26 | CC(C)(C)C(=O)N1CCN(c2ccnc3cc(Cl)ccc23)CC1 | -55.8
27 | Cc1c(Cl)c([N+](=O)[O-])nn1CCCC(=O)N(Cc1ccccc1)Cc1ccccc1 | -0.459
28 | O=C(NCC1CCCN(C(=O)Cc2ccccc2Cl)C1)c1ccc(F)cc1 (centres unmarked) | 7.72
29 | CC[C@H](C)[C@H](NC(N)=O)C(=O)Nc1ccc2c(c1)OCO2 | 16.9
30 | COc1ccc(S(=O)(=O)NCCC(=O)NCc2cccs2)cc1 | 1.11
31 | Cc1c(OCC(=O)N2CCN(c3ccccc3)CC2)ccc2c3c(c(=O)oc12)CCCC3 | 9.34
32 | O=C(CSc1nc2c(c(=O)[nH]1)CCC2)Nc1ccc(F)cc1 | 20.5
33 | Clc1ccc2nnc(Cl)n2n1 | 19.2
34 | Cc1c(NC(=O)Nc2ccc(C(C)(C)C)cc2)c(=O)n(-c2ccccc2)n1C | 24.9
35 | NC(=O)C1CCN(c2nc(C3CC3)nc3c2nnn3Cc2ccccc2)CC1 | -12.3
36 | COc1ccc(-n2nc3c(N4CCC(C(=O)N5CCC(C)CC5)CC4)nnc(C)c3c2C)cc1 | -11.6
37 | CC(=O)Nc1ccc(OCCC[n+]2ccccc2)cc1.[Cl-] | 14.5
38 | CCCCC(CC)C(=O)Nc1cc(C(=O)NCCC)ccc1N1CCC2(CC1)CC(c1cccc(Br)c1)=NO2 (centres unmarked) | 6.87
39 | Cn1c(Oc2ccc(Cl)cc2)c(C=O)c2ccccc21 | -5.47
40 | CCc1nnc(NC(=O)CC(=O)Nc2ccccc2C(=O)O)s1 | 0.688
41 | COc1ccc(CCNC(=O)CSc2nnc(-c3ccco3)c(-c3ccco3)n2)cc1OC | 13.7
42 | O=C(Nc1ccc(Cl)cc1)N1CC2CC(C1)c1cccc(=O)n1C2 (centres unmarked) | 4.86
43 | COc1cccc(C(=O)c2c[nH]c(C(=O)NCc3cccs3)c2)c1 | 9.58
44 | Cc1ccccc1NC(=O)C(=O)Nc1ccccc1C | 11.6
45 | CCOC(=O)C1CCN(Cc2cccc(Oc3ccc(Cl)cc3)c2)CC1 | 6.37
46 | CCN1CCN(Cc2nc3ccc([N+](=O)[O-])cc3c(=O)n2-c2ccc(OC)cc2OC)CC1 | -19.3

Row | SMILES | hERG current change (%, negative = inhibition) at 1uM [%]
47 | O=C1/C(=C/c2cccc(F)c2)CSc2sccc21 | 4.05
48 | CC(=O)OCC(=O)[C@@]12OC3(CCCC3)O[C@@H]1C[C@H]1[C@@H]3CCC4=CC(=O)C=C[C@]4(C)[C@@]3(F)[C@@H](O)C[C@@]12C | 11.3
49 | O=C(Nc1ccccc1C(F)(F)F)c1cc(-c2ccco2)on1 | 10.8
50 | Cc1nn(C)c(C)c1CN(C)C(=O)c1cc2nc(-c3ccco3)cc(C(F)(F)F)n2n1 | 2.73
51 | Cc1csc(SCC(=O)Nc2ccccc2[N+](=O)[O-])n1 | 5.17
52 | COc1cccc(NS(=O)(=O)NC(=O)c2c(C)[nH]c3ccccc23)c1 | 17.7
53 | CCOC(=O)N1CCC(NC(=O)c2cc(S(=O)(=O)N(CC)CC)ccc2F)CC1 | 6.82
54 | Cc1cc(C(=O)NCc2ccc3c(c2)OCO3)n(-c2ccccc2)n1 | -5.53
55 | CC(Oc1ccc(Br)cc1)C(=O)N(C)CC(=O)Nc1ccc(N2CCOCC2)cc1 (centres unmarked) | 9.85
56 | COc1ccccc1N1CCN(C(=O)c2ccc(S(=O)(=O)N3CCCC3)cc2)CC1 | 8.12
57 | CC1(C)CC(=O)C2=C(C1)N(Cc1cccnc1)C(=O)C2(NC(=O)c1cccnc1)C(F)(F)F (centres unmarked) | 13.6
58 | CCOc1ccc(NC(=O)CC(Cc2ccc(Cl)cc2)C(=O)O)cc1 (centres unmarked) | 9.71
59 | O=C(NS(=O)(=O)c1ccccc1Cl)c1ccc[nH]1 | 8.8
60 | CCc1c(C)sc(NC(=S)N2CCN(C(=O)C3CCCO3)CC2)c1C(=O)OC (centres unmarked) | -3.9
61 | CC(C)Cn1c(SCc2nnc(-c3cccs3)o2)nc(O)cc1=O | 13.7
62 | O=C(CSc1nc2ccccc2nc1SCC(=O)N1CCOCC1)N1CCOCC1 | 4.89
63 | CC(=O)/C(N=Nc1cccc(C(F)(F)F)c1)=C(\C)O | 14.9
64 | CCCOc1ccc(/C=N/Nc2ccccc2[N+](=O)[O-])c(O)c1 | 14
65 | O=C(Nc1cccc(Cl)c1)c1nc[nH]c1C(=O)N1CCc2ccccc2C1 | 15.7
66 | Cc1ccc(C)c(-n2nnnc2SCC(=O)NCCC2=CCCCC2)c1 | 11.6
67 | CCOC(=O)N1CCOCCOCCN(C(=O)OCC)CCOCC1 | 6.49
68 | COc1ccc(CCNC(=O)C2(c3ccccc3)CC2)cc1 | 14.1
69 | Cc1ccc(-c2nc(C(=O)NC3CCCCCC3)no2)cc1 | 11.4

Row | SMILES | hERG current change (%, negative = inhibition) at 1uM [%]
70 | CCN(CC)S(=O)(=O)c1ccc(N2C(=O)CC2(/C=C/c2ccccc2)C(=O)NC2CCCC2)cc1 (centres unmarked) | 15.5
71 | COc1cc(O)sc1C=Nc1ccc(Cl)cc1Cl | 7.61
72 | Cc1ccc(C)c(OCC(=O)Nc2nc3ccc([N+](=O)[O-])cc3s2)c1 | -0.416
73 | C=C(C)[C@@H]1CC=C(CN2CCN(Cc3ccccc3)CC2)CC1 | 4.74
74 | Cc1cccc(C)c1NC(=S)N1CCCN(Cc2ccc(F)cc2)C1 | 11.2
75 | CC1CN(C(=O)c2cc(S(=O)(=O)N3CCCCC3)ccc2Cl)CC(C)O1 (centres unmarked) | 1.95
76 | CCC(=O)Nc1cccc(NC(=O)c2ccccc2Cl)c1 | 7.95
77 | Cc1ccc(S(=O)(=O)NCCC2(C(C)C)CCOC(C)(C)C2)cc1 (centres unmarked) | 5.74
78 | Cc1cccc(N2CCN(C(c3ccccc3)c3nnnn3C(C)(C)C)CC2)c1C (centres unmarked) | 15.1
79 | C=CCc1ccc(OC)c(OC)c1 | 15.8
80 | CCOC(=O)C1CCCN(C(=O)c2cc(Cl)ccc2Cl)C1 (centres unmarked) | 15.3
81 | Cc1oc2ncnc(N)c2c1C | 5.54
82 | CCn1nc(C(=O)Nc2ccccc2N2CCCC2)c2ccccc2c1=O | 5.21
83 | N#Cc1ccc(N2C(=O)[C@@H]3C(C(=O)c4cnccn4)=NN[C@@H]3C2=O)cc1 | 12.8
84 | CCC(Oc1ccccc1OC)C(=O)Nc1ccc2c(c1)OCO2 (centres unmarked) | 9.36
85 | CCOc1ccc(NC(=O)c2ccc(C#CC(C)(C)O)cc2)cc1 | 9.96
86 | Cc1ccc(/C=N/n2c(-c3ccncc3)n[nH]c2=S)s1 | 9.72
87 | COCCCNc1nc2c(c(=O)[nH]c(=O)n2C)n1CC(O)COc1cccc(C)c1 (centres unmarked) | 12.1
88 | NNP(=O)(CC(=O)c1ccccc1)c1ccccc1 (centres unmarked) | 18.2
89 | O=C(CN1C(=O)NC(c2ccccc2)(c2ccccc2)C1=O)NCC(=O)Nc1ccc(F)cc1 | 7.33
